Results on 56 sequences are retold here after the supplement of paper PMC11417369.

± gives the standard deviation of the averaged measurements. This is one part of the list.

For the assay, the system named is PfAP2-I AP2 domain 3 (GST-tagged). Put plainly: gcPBM binding intensity (ln(normalized median fluorescence intensity)); higher = stronger DNA binding. Summed up: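 Binding intensity is the highest Masliner-normalised natural-log median intensity over replicate spots in either probe orientation. To obtain it, GST-tagged P. falciparum DNA-binding domains made in E. coli were incubated for 1 h on an Agilent 4 × 180k array of primer-extended double-stranded 36-bp intergenic genomic probes plus negative controls. Detection used Alexa488 anti-GST antibody with scanning at 488 nm.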
In the case of “AGAATGAAATAATATACACACAAAGGAAAAATGTAA [CACACA_site3911]”, the “gcPBM binding intensity (ln)” value stood at 8.04 ± 0.45.

Take “TGTACATAAATCTAATTATTATATGTGTATATATAT [CACACA_negctrl_site1582]”: the “gcPBM binding intensity (ln)” value came out at 8.48 ± 0.51.

Regarding “AGTACAGACATAGACACACACACACCCATAAAAAAA [CACACA_site1515]”, the “gcPBM binding intensity (ln)” value turned out to be 8.02 ± 0.22.

On to “TTAAGATAGCAAATATGTACACATTTGTAAAATAAA [XGTACX_site4837]”, for which the “gcPBM binding intensity (ln)” value was found to be 7.94 ± 0.41.

Consider “TCACATATTATCTTTACACACTATATATAAGTTTTA [CACACA_site2790]”, for which the “gcPBM binding intensity (ln)” value came out at 8.15 ± 0.57.

As to “TCATGTTTTACAAAAACACACAAATGAATATAAACC [CACACA_site1161]”, the “gcPBM binding intensity (ln)” value is 8.03 ± 0.59.

Take “AATATAATAATAAAAACACACACGTTGATTGTATTA [CACACA_site2381]”: the “gcPBM binding intensity (ln)” value stood at 7.57 ± 0.46.

“TAAAAATTCAATTGCACACGCACATATTTTAATAAG [CACACA_site2014]”: the “gcPBM binding intensity (ln)” value was 8.8 ± 0.057.

As for “CGTATGCAAGGAACCACACACACACCCATAAATGTA [CACACA_site749]”, the “gcPBM binding intensity (ln)” value was determined as 7.92 ± 0.52.

With “AAAAAATAGACATATACACACATATGTATTTATAAT [CACACA_site5225]”, the “gcPBM binding intensity (ln)” value is 7.5 ± 0.36.

“TTTTTTTTTATAAGGTGTACGTAAAATGTGTAGGTC [XGTACX_site3585]”: the “gcPBM binding intensity (ln)” value was found to be 8.89 ± 0.16.

Consider “TTAAAAATAAAAAATACACACTCTAGTCCATGTAAC [CACACA_site3640]”, for which the “gcPBM binding intensity (ln)” value came to 7.68 ± 0.4.

Take ATTTCATATAGTGTAGTGCAATTTTAAGCATCAAGG: the “gcPBM binding intensity (ln)” value was found to be 9.485 ± 0.007.

Take “ATGTCATTATATACATGTACGCATATCTGTTTATCC [XGTACX_site3947]”: the “gcPBM binding intensity (ln)” value stood at 8.05 ± 0.62.

On to “CCTATAATAAATAATACACACATATTGTAAATATAT [CACACA_site7496]”, for which the “gcPBM binding intensity (ln)” value stood at 7.74 ± 0.38.

As for “TAATAAATATATAATTGTACTTAAAAGAATATAAAA [XGTACX_site2928]”, the “gcPBM binding intensity (ln)” value is 7.65 ± 0.47.

For the sequence “AATATATACCAACATAAATATATATATATATATATA [TGCATGCA_negctrl_site334]”, the “gcPBM binding intensity (ln)” value came out at 9.64 ± 0.64.

With “AAGTGTATATAAAAATGTACATATTTCGATTTAAAT [XGTACX_site4161]”, the “gcPBM binding intensity (ln)” value worked out at 7.93 ± 0.54.

As to “ATATATATATATATATGTACATAATTAATAATTAGA [XGTACX_site5672]”, the “gcPBM binding intensity (ln)” value worked out at 9.43 ± 0.74.

As to “TTACACATATTATATATATATAAAAAAAAAAAATAT [CACACA_negctrl_site1684]”, the “gcPBM binding intensity (ln)” value is 7.84 ± 0.59.

Turning to “AAAAATCGATACAAGCGTACAAAATAAAATAAAAAT [XGTACX_site5546]”, the “gcPBM binding intensity (ln)” value was found to be 8.09 ± 0.57.

In the case of “ACCAATAATATACATACACACATAAAGGTTTATATA [CACACA_site315]”, the “gcPBM binding intensity (ln)” value came out at 7.95 ± 0.44.

On to “TCTATTAACTGATGTGCATGTTATAACCTAGAAGTA [TGCATGCA_site359]”, for which the “gcPBM binding intensity (ln)” value was found to be 8.18 ± 0.54.

On to “AGTTCGAATATATAAAGTACATAATTATATATTTGC [XGTACX_site2604]”, for which the “gcPBM binding intensity (ln)” value is 7.66 ± 0.54.

On to “TAATATCATTTAGACACACACTCTTACAATATGTAA [CACACA_site5434]”, for which the “gcPBM binding intensity (ln)” value is 7.62 ± 0.43.

For “TGGATTCGTATATGTAGTACTATTTATATGTGATTT [XGTACX_site1581]”, the “gcPBM binding intensity (ln)” value was determined as 7.71 ± 0.43.

As for “TCTTATCCTACTTTTATTTTTACTTTTTTTTCTTAT [CACACA_negctrl_site111]”, the “gcPBM binding intensity (ln)” value is 7.83 ± 0.71.

On to “TATATATATATATGTATATATGTATATCTATATTTA [CACACA_negctrl_site131]”, for which the “gcPBM binding intensity (ln)” value is 9.24 ± 0.49.

In the case of “TAAATTGAGTATATTACACACATATAAATATATTAT [CACACA_site4027]”, the “gcPBM binding intensity (ln)” value worked out at 7.58 ± 0.4.

For the sequence “AATATGCCTCCCCAAAAAAAATATATATATATTTAT [GTGCAC_negctrl_site716]”, the “gcPBM binding intensity (ln)” value was 8.72 ± 0.38.

“TGGTTATAATTGTACGCATGTAATTACATATTCTCT [TGCATGCA_site599]”: the “gcPBM binding intensity (ln)” value was 7.82 ± 0.68.

Turning to “TATATTTAAATATATACACACATTATCATTTTCATA [CACACA_site1708]”, the “gcPBM binding intensity (ln)” value came out at 7.72 ± 0.42.

For “TATCATTTGGTCTTTTACTTTTTCTGTTTTTTTTTT [CACACA_negctrl_site976]”, the “gcPBM binding intensity (ln)” value is 7.84 ± 0.47.

As to “TTTTTTACTATATCAATTACAAAACAAAAAAAAAAA [GTGCAC_negctrl_site683]”, the “gcPBM binding intensity (ln)” value was found to be 8.15 ± 0.79.

Take “TGATAAAATATTAAATTATTTCTTTATTTAAAGATT [CACACA_negctrl_site370]”: the “gcPBM binding intensity (ln)” value amounted to 7.21 ± 0.32.

For “AAATATGTTTCAAAAAGTACATTTCTATCTTTTTTT [XGTACX_site7178]”, the “gcPBM binding intensity (ln)” value came out at 7.71 ± 0.56.

In the case of “TCTTACAAGGAACTAATAAAATTGTAGTTTGTATTT [CACACA_negctrl_site386]”, the “gcPBM binding intensity (ln)” value was determined as 7.48 ± 0.75.

On to “AAGTATTTCCTAAAATGTACATATAAATAAGTATAT [XGTACX_site1282]”, for which the “gcPBM binding intensity (ln)” value was found to be 7.73 ± 0.41.

“AAATCTTAATAAAGTTGTACATAATTATGTTTAATA [XGTACX_site3348]”: the “gcPBM binding intensity (ln)” value worked out at 7.59 ± 0.4.

Regarding “TTATTATTTATTTTTTATTATTATTATTTTTTTTTA [XGTACX_negctrl_site76]”, the “gcPBM binding intensity (ln)” value stood at 7.53 ± 0.46.

On to “CATATATTTTGAAACACACACATATAAAATATACAT [CACACA_site6664]”, for which the “gcPBM binding intensity (ln)” value turned out to be 8 ± 0.62.

On to “GAAAAGATTTAAAAATGTACAAAAGAAAAAAAAAAA [XGTACX_site6916]”, for which the “gcPBM binding intensity (ln)” value was determined as 8.09 ± 0.92.

As to “TTAAAATTAAAATACGTACACACCTTATCTTTTTGG [CACACA_site7982]”, the “gcPBM binding intensity (ln)” value was determined as 8.04 ± 0.3.

Take “AACCTCATGGACATATGTACACATATACAATTATTT [XGTACX_site6533]”: the “gcPBM binding intensity (ln)” value stood at 8.16 ± 0.54.

With “TTATCTTACATATATCATTAAATCATATAACAAAAA [XGTACX_negctrl_site517]”, the “gcPBM binding intensity (ln)” value was 7.55 ± 0.48.

As to “TTATGTATTTTAAATGGTTTTATTATAAAGTTTAAT [CACACA_negctrl_site1470]”, the “gcPBM binding intensity (ln)” value was determined as 7.52 ± 0.55.

For GTTATATTTAAAATAGTGCAATAAAAATAATAATAT, the “gcPBM binding intensity (ln)” value came to 11.4 ± 0.67.

For the sequence “CCTTTATAATTGGAAACACACATATAAAGTATATAT [CACACA_site3900]”, the “gcPBM binding intensity (ln)” value stood at 7.68 ± 0.59.

Turning to “CACAAATATACAAATACACACAAATATACGCATATA [CACACA_site2384]”, the “gcPBM binding intensity (ln)” value came to 7.59 ± 0.4.

Regarding “ATATAATATATATACAAACACACAATTGTGTCCACA [CACACA_site1748]”, the “gcPBM binding intensity (ln)” value was 7.92 ± 0.4.

On to “AAAATACATGGACACACACACACACCGATATATATA [CACACA_site5885]”, for which the “gcPBM binding intensity (ln)” value amounted to 8.28 ± 0.79.

Consider “TACATAACTTTAATCACACACAAACAAACACATACA [CACACA_site6235]”, for which the “gcPBM binding intensity (ln)” value is 8.09 ± 0.14.

Regarding “AAATATACATATATATGTACATATAAATATATTTTA [XGTACX_site5266]”, the “gcPBM binding intensity (ln)” value is 7.58 ± 0.33.

Consider “TAGTTTTCTTAAAGATGTACTTATTAAAAATAAACT [XGTACX_site1001]”, for which the “gcPBM binding intensity (ln)” value is 7.66 ± 0.2.

With “TATAGATAAATTATTTGTACTTATAAAATTATTATA [XGTACX_site2870]”, the “gcPBM binding intensity (ln)” value was 7.42 ± 0.38.

With “AATGATTGATTTTATTGTACGTACTCGGAATATGGT [XGTACX_site4976]”, the “gcPBM binding intensity (ln)” value came to 8.02 ± 0.55.
